Results on 59 compounds are retold here after the supplement of paper PMC4723716.

The structures appear in SMILES notation. The full ranking holds about 3,600 compounds; the median of “viability index relative to DMSO control” is about 0.81, and the lowest 2% start at about 0.13. The list shows a part of the results.
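Note: 384-well serum-free SaLSSA: MitoTracker Red CMXRos staining with saponin lysis, high-content imaging, treated-well particle count divided by plate-mean count of DMSO wells.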

The assay relates to Plasmodium falciparum NF54 stage V gametocytes. Briefly: viability index relative to DMSO control (fraction); higher = less gametocyte killing. Particulars: 1.25 µM, incubation time: 72 h.
Compound `Cc1c(C)n(Cc2ccc(F)cc2)c2ccc(C(=O)NCc3ccco3)cc12` gave a viability index of 0.791.

Compound `COC(=O)C1=C(C)NC2=C(C(=O)CC(c3ccc(OC)c(OC)c3)C2)C1c1cccs1` (centres undefined) had a viability index of 0.297.

The compound `COc1cc(NC(=O)Cn2ncc3c(=O)oc4ccccc4c32)cc(OC)c1OC` showed a viability index of 0.859.

Turning to `CCOC(=O)c1c(NC(=O)C(C)Sc2nnc(CNC(=O)c3ccco3)n2-c2cccc(Cl)c2)sc2c1CCCC2` (centres undefined), the viability index was determined as 0.967.

Turning to `COc1ccc(C2C(C(=O)OC3CCCCC3)=C(C)Nc3nnnn32)cc1` (centres undefined), the viability index worked out at 0.751.

On to `CC(=O)C1C(=O)c2c(cccc2[N+](=O)[O-])C1=Nc1ccccc1C` (centres undefined), for which the viability index stood at 0.73.

`COc1ccccc1NC(=O)CCN1CCCC(C)C1` (centres undefined) returned a viability index of 0.789.

`COc1ccc2c(C)nc(Nc3nc(C)cc(-c4ccccc4)n3)nc2c1` came in with a viability index of 0.278.

For the compound `COC(=O)C1=C(C)NC(=Cc2cc(C)n(-c3cc(C)ccc3C)c2C)C1=O`, the viability index is 0.363.

In the case of `Cc1ccc(C2CC(C(F)(F)F)n3ncc(C(=O)Nc4ccc(Cl)cc4)c3N2)cc1` (centres undefined), the viability index amounted to 0.669.

`COc1ccc(C=C2N=C(c3ccc(Cl)cc3)N(c3ccccc3)C2=O)cc1OC` registered a viability index of 1.03.

With `COc1ccc(C2CC(c3ccccc3Cl)n3ncnc3N2C(=O)C2CC2)cc1` (centres undefined), the viability index worked out at 0.808.

In turn, `O=C(CSc1nc(NCc2ccccc2)c2ccccc2n1)NCc1ccco1` yielded a viability index of 1.05.

For the compound `CC(C)CC(NC(=O)C(=Cc1ccco1)NC(=O)c1ccccc1)C(=O)OCc1ccccc1` (centres undefined), the viability index was 0.755.

In the case of `Cc1ccccc1C=C1SC(=Nc2ccccc2)NC1=O`, the viability index worked out at 0.653.

`COc1ccc(-c2c[n+](CC(=O)c3ccc(Cl)cc3)c3n2CCC3)cc1`: the viability index turned out to be 0.987.

Consider `Cc1cccc2cc(CNC3CCOC(C)(C)C3)c(N3CCCC3)nc12` (centres undefined), for which the viability index amounted to 0.768.

`CCC(Sc1nnc(-c2ccc(C)cc2)c(-c2ccc(C)cc2)n1)C(=O)NCCOC` (centres undefined) had a viability index of 0.647.

Compound `Cc1cc(F)ccc1NC(=O)C(C)n1c2ccccc2c2nc(=O)cc(C)n21` (centres undefined) showed a viability index of 0.946.

The compound `CCCN(CCC)S(=O)(=O)c1cc(Br)cc2c1N(C(C)=O)CC2` had a viability index of 1.1.

`Cc1cc(Nc2ccc(Cl)c(C)c2)n2nc(C)nc2n1` came in with a viability index of 1.02.

In turn, `Cn1c(=O)n(C)c2cc(NC(=O)CCl)ccc21` returned a viability index of 0.504.

Compound `COc1ccc(OC)c(NC2=C(Cl)C(=O)N(c3ccc(C)c(Cl)c3)C2=O)c1` showed a viability index of 0.981.

For the compound `CCOC(=O)c1c(NC(=O)CSc2nnc(CNC(=O)c3cccs3)n2-c2ccccc2OC)sc2c1CCC2`, the viability index was 1.07.

`CCOC(=O)c1c(NC(=O)CCC(=O)OC)sc2c1CC(C)(C)SC2`: the viability index was determined as 1.14.

For `CN(C)C=Nc1nn(C)cc1C(=O)Nc1ccc(F)c(Cl)c1`, the viability index came to 0.967.

As for `Cc1cc(C)c2c(c1)OCN(Cc1ccccc1Cl)C2`, the viability index was 0.51.

Turning to `Cc1ccc(N=C2NC(=O)C(=Cc3ccc(N(C)C)cc3)S2)cc1`, the viability index is 0.61.

`O=c1c(NCc2ccco2)nc2cc(Cl)ccc2n1CCNc1ncc(C(F)(F)F)cc1Cl` showed a viability index of 1.07.

In the case of `Cc1cc(N)c2ccccc2[n+]1CCCCCCCCCC[n+]1c(C)cc(N)c2ccccc21`, the viability index was 0.606.

Consider `CC[n+]1cc(C)ccc1C=Cc1ccc(N(C)C)cc1`, for which the viability index stood at 1.09.

Take `Cn1c(=O)c2c(ncn2CC(O)CN2CCCC2)n(C)c1=O` (centres undefined): the viability index worked out at 0.867.

`Cc1ccccc1C(=O)N1CCC(n2nccc2NC(=O)CCOc2ccccc2)CC1`: the viability index was 0.827.

For the compound `CCN(CC)CCCNC(=S)N(Cc1cc2ccc(OC)cc2[nH]c1=O)C1CCCCC1`, the viability index amounted to 0.968.

Compound `OC1(c2ccc(Br)cc2)CCN(C2CCN(CCc3ccccc3)CC2)CC1` showed a viability index of 1.04.

For the compound `CCOc1cc(C(=O)Nc2ccc(-c3nc4ccccc4[nH]3)cc2)cc(OCC)c1OCC`, the viability index stood at 0.538.

Take `O=C1C(Nc2ccccc2)=C(N2CCCCC2)C(=O)c2ccccc21`: the viability index was determined as 0.63.

`Cc1ccc(OCCCCCCNCCO)c(C)c1` displayed a viability index of 0.951.

In the case of `COc1ccc(-c2cc(C(=O)Nc3cc(Oc4ccc(NC(C)=O)cc4)cc([N+](=O)[O-])c3)c3ccccc3n2)cc1`, the viability index came out at 0.664.

Turning to `COc1ccc(NC2=C(c3ccc(C(F)(F)F)cc3)C(=O)c3ccccc32)cc1`, the viability index was determined as 1.06.

The compound `CN(C)CCNC(=O)c1cc2c(-c3ccc(Cl)cc3)nn(C)c2s1` showed a viability index of 0.821.

With `O=C(Nc1cc(C(F)(F)F)ccc1N1CCOCC1)C(Cl)(Cl)Cl`, the viability index is 1.31.

With `CCOc1ccc(N2C(=O)C3C4CC(C(Br)C4Br)C3C2=O)cc1` (centres undefined), the viability index stood at 0.889.

The compound `Cc1oc(C)c2c(=O)cc(-c3cccs3)cc(O)c12` displayed a viability index of 0.619.

As for `Cc1cc(C)n(N=Cc2ccc(Cl)cc2)c(=O)c1C#N`, the viability index was found to be 0.745.

The compound `CC(C)OC(=O)CSc1nnc(CNc2nc(-c3ccccc3)cs2)n1C` had a viability index of 0.971.

The compound `O=C(Nc1ccc(F)cc1)N1CCN(c2ccc3nnc(-c4ccccc4)n3n2)CC1` showed a viability index of 0.801.

`CCOC(=O)C1=C(C)NC(=Cc2cc(C)n(-c3ccc(C)cc3)c2C)C1=O`: the viability index came to 0.421.

For the compound `O=[N+]([O-])c1ccc(N2CCCN(C(=S)Nc3ccc(F)cc3Br)CC2)nc1`, the viability index is 0.261.

In turn, `COc1cccc(-c2cc(N=C(NCc3ccco3)SC)[nH]n2)c1` registered a viability index of 1.13.

In turn, `O=C(Nc1ccccc1Cl)C1CCCN1C(=O)OCc1ccccc1` (centres undefined) showed a viability index of 0.846.

Compound `N#Cc1ccc(N2CCN(C(=O)c3ccc(F)cc3Cl)CC2)cc1` registered a viability index of 0.851.

`O=C1CN(C(=O)CCC2CCCC2)C(c2ccc(F)cc2)c2cc(Cl)ccc2N1` (centres undefined) had a viability index of 0.751.

`CCOC(=O)c1cnc2c(ccc3ccccc32)c1O` displayed a viability index of 0.382.

In turn, `C=CCCC(=O)N1CCC(C(=O)Nc2ccc(-c3nc4ccccc4o3)cc2)CC1` returned a viability index of 0.846.

With `Cc1cccnc1NC(=O)CCCC(=O)O`, the viability index was 0.845.

`CCOc1ccc(C2C(C(=O)OC)=CNC=C2C(=O)OC)cc1Cl` returned a viability index of 1.01.

The compound `Cc1nc(N2CCN(c3ccccn3)CC2)c2c(C)c(C(=O)Nc3c(F)cccc3F)sc2n1` showed a viability index of 1.17.

The compound `Nc1ccc2[nH]c(C=Cc3ccc(Cl)cc3)nc2c1` came in with a viability index of 0.933.
